Data from PubChem BioAssay AID1508624 (National Center for Advancing Translational Sciences (NCATS), 2021).
Hit rate of the full screen: of about 48,000 compounds, about 120 (0.25%) were called active. Not shown: some 4% with an inconclusive outcome. Calls follow the shape of the dose curve; as a rule, active = well fitted activation curve with a large enough effect; inconclusive = small, poorly fitted or top-dose-only effect, or another doubt; inactive = no such curve, though single readings can be large or run the other way. The list shows a part of the results.

Assay: Primary qHTS for Identification of Small Molecule Activators of Huntingtin-Antisense Promoter Activity; also: nearly all actives have a fitted effect of over 55% in size
Details: HEK293 HTT-AS promoter firefly luciferase reporter, 24 h; series mostly up to 57.5 µM; activity change, positive = activation: at the top concentration
Procedure, shortened: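 Quantitative HTS used concentration series of up to 57.5 uM final on HEK293 luciferase reporter cells, 24 h at 37 degrees C. Readout was Dual-Glo firefly luminescence.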

Activity change, positive = activation, inactive:
Cc1cn2c(=O)cc(COC(=O)c3ccc(NC(=O)c4ccc(C(C)(C)C)cc4)cc3)nc2s1 -21.8%, COc1ccc(C2=Nc3ccccc3N(CC(=O)Nc3cccc(C(C)=O)c3)C(=O)C2)cc1 4.64%, COc1ccc(CNS(=O)(=O)c2csc(C(N)=O)c2)cc1OC 3.61%, CCOC(=O)c1ccc(NC(=O)C(CC)Sc2nncn3c2cc2oc(C)cc23)cc1 (stereo unspecified) -8.72%, CCCCNc1nc2c(-c3cccc(Br)c3)nnn2c2ccccc12 15.9%, COc1cccc2c1cc1c(=O)n(CC(=O)NCCCN3CCN(C)CC3)nc(C)n12 -8.55%, CCC1=C(c2ccc(C)cc2)S(=O)(=O)N=C1N1CCC(C(=O)NCCc2cccc(OC)c2)CC1 -31.2%, COc1ccc(OCCCn2c(C)nc3cc(C)c(C)cc32)cc1 -13.9%, Cn1nnnc1SCCCNCc1cc(Cl)ccc1OCc1ccccc1 -19.2%, O=C1Nc2c(c(=O)[nH]c(=O)n2-c2ccc(F)cc2)C1(NS(=O)(=O)c1ccc(Cl)cc1)C(F)(F)F (stereo unspecified) -10.1%, Cc1cccc(N2CCN(C(=O)c3c4c(nc5ccccc35)C(=O)N(C3CCCCC3)C4)CC2)c1C -13.5%, COc1ccc(OC)c(NC(=O)c2cc3c(=O)n4cccc(C)c4nc3n2C)c1 -5.18%, Cc1ccc(CC(=O)NCc2nc(-c3cccc(C)c3)no2)cc1 -11.9%, Cc1ccc(N(C)C(=O)c2noc3c2CCCCC3)cc1C -11.9%, Cc1cccc(C)c1OCc1cc(=O)n2ccsc2n1 -12.4%, COc1cc(OC)c(NC(=O)C(C)n2nc(-c3ccc(C)c(C)c3)ccc2=O)cc1Cl (stereo unspecified) -29.8%, COc1ccc(C(=O)Nc2ccc3c(c2)N(C)C(=O)c2ccccc2S3)cc1OC -42.1%, CCOC(=O)c1cnc2c(C)cc(C)cc2c1Nc1ccc(N2CCOCC2)cc1 6.91%, CCCOc1ccccc1C(=O)Nc1nc2c(s1)CCCC2 -25.9%, CN(Cc1ccccc1)C(=O)c1ccc2c(c1)N(Cc1ccc(Cl)cc1)C(=O)c1ccccc1S2=O (stereo unspecified) -34.8%, Cc1oc(-c2ccc(Cl)cc2)nc1CN1CCCC(C(=O)NCc2ccc(Cl)cc2)C1 (stereo unspecified) -6.75%, COc1cccc(NS(=O)(=O)c2ccc3[nH]cc(C(=O)N(C)Cc4ccco4)c(=O)c3c2)c1 -9.08%, Cc1nnc(N2CCC(C(=O)NCc3cccc(Cl)c3)CC2)c2nn(-c3ccccc3)c(C)c12 -37.1%, CCc1ccccc1N1CC(c2nc3ccccc3n2CCC2CCCCC2)CC1=O (stereo unspecified) -74.2%, Cn1c(=O)c2c(c3ccccc31)OC(=O)CC2c1ccccc1 (stereo unspecified) -9.61%, COc1ccc(NC(=O)c2ccc3c(=O)n4nc(Nc5ccccc5C)sc4nc3c2)cc1 -15.6%, O=c1c2ccccc2n2c(-c3cccc(F)c3)nnc2n1Cc1ccccc1 -18.7%, CC(C)c1ccc(NC(=O)CSC2=Nc3ccccc3C3=NC(CC(=O)NCc4ccco4)C(=O)N23)cc1 (stereo unspecified) -15.8%, CCOC(=O)N1CCN(C(=O)c2cnn(-c3cccc(C)c3)c2-n2cccc2)CC1 -15.6%, C1=CC2C3C=CC(C3)C2C1 (stereo unspecified) -1.17% [at 116 µM, percent change from vehicle, -100% = no light], O=C1CC(=O)Nc2cc(S(=O)(=O)Nc3cccc(Br)c3)ccc2N1 -0.895%, COC(=O)c1cc2sc(Cl)cc2n1Cc1nc(-c2ccccc2F)oc1C -1.25%, Cc1ccc(CCNC(=O)c2ccc(CNS(=O)(=O)c3ccc(F)cc3)cc2)cc1 -5.44%, CCOC(=O)C1=C(CS(=O)(=O)c2ccc(F)c(C)c2)NC(=O)NC1c1ccc(F)c(F)c1 (stereo unspecified) -28.6%, CC(=O)N1CCc2c(sc(NC(=O)CSc3ccc(C)cc3)c2-c2nc3ccccc3s2)C1 -2.85%, Cc1cccc(N2CCN(C(=O)c3cccc(-n4c(C)nc5cccnc54)c3)CC2C)c1 (stereo unspecified) -32%, Cc1c(C(=O)Nc2ccccc2Cl)oc2ccc(S(=O)(=O)N3CCCCCC3)cc12 0%, Cc1cc(C)c2c(n1)SCC(=O)N2CC(=O)Nc1c(C)cccc1C -8.68%, Cc1cc(C)cc(NC(=O)Nc2c[nH]c(=O)[nH]c2=O)c1 -7.8%, O=C(NC1(C(F)(F)F)N=C(c2ccccc2)N(C2CCCCC2)C1=O)c1ccccc1F (stereo unspecified) -37%, COc1ccc(NS(=O)(=O)c2cc3c4c(c2)CC(=O)N4CCC3)cc1Cl -13.7%, COc1ccc(OC)c(CCNc2ncnc3onc(C)c23)c1 -71%, CCn1c(CN2CCC(C)CC2)nc2cc(NC(=O)c3cccc([N+](=O)[O-])c3)ccc21 -6.7%, O=C(Cn1c(=O)c2sccc2n(CC(=O)Nc2ccc(Cl)cc2Cl)c1=O)NCCc1ccccc1 -44.9%, Cc1ccc(NC(=O)N2CCc3c([nH]c4ccccc34)C2c2ccccc2F)c(Cl)c1 (stereo unspecified) -28.5%, CCCN1Cc2cccc(C(=O)Nc3ccc(OC)cc3OC)c2C1=O 0.991%, COc1cccc(C(=O)c2cn(CC(=O)Nc3cccc(Cl)c3C)c3nc(C)ccc3c2=O)c1 -8.22%, COCCN1C(=O)c2oc3ccc(C)cc3c(=O)c2C1c1ccc(C(=O)OC)cc1 (stereo unspecified) -0.81%, CSc1ncc(C(=O)NCc2cccc(Br)c2)c(-c2ccccc2)n1 -19.3%, COc1ccc(CNS(=O)(=O)c2ccc3c(c2)C(C)(C)C(=O)N3C)cc1OC -14.3%, Cc1ccc(C(C)C)c(OCC(=O)Nc2ccc(-c3nc4ncccc4o3)cc2C)c1 -9.34%, O=C(NCc1ccccc1F)C(=O)NCC(c1ccco1)S(=O)(=O)c1ccccc1 (stereo unspecified) -22.3%, Cc1ccc(C)c(NS(=O)(=O)c2ccc3c(c2)CCCN3C(=O)C2CCC2)c1 -35%, COc1ccc(C(C(=O)NCc2ccccc2)N(C(=O)Cn2nnc3ccccc32)c2ccc(OC)cc2)cc1 (stereo unspecified) -12.9%, Cc1cc(N2CCN(C)CC2)nc2ccc(NC(=O)Nc3ccccc3Cl)cc12 -29.8%, CCN(c1ncnc2c1c(-c1ccccc1)cn2-c1ccccc1)C1CCCCC1 -5.14%, Cc1ccc(OCC(=O)OCc2cc(=O)n3nc(C4CCCCC4)sc3n2)cc1 -8.01%, COc1ccc(N(C(=O)c2ccccc2C)S(=O)(=O)c2ccc3c(c2)n(C)c(=O)n3C)cc1 -5.59%, CCOc1ccccc1NS(=O)(=O)c1c(C(=O)OC)sc2cccc(F)c12 -29.7%, COc1ccc(OC)c(CCNC(=O)c2sc3nc4n(c(=O)c3c2C)CCCC4)c1 -2.04%, CSCCC(NC(=O)C1CCCCC1)C(=O)Nc1ccc(F)c(Cl)c1 (stereo unspecified) -21.4%, CCNc1c(NC(=O)c2ccccc2OCC)c(=O)oc2ccccc12 -13.7%, COc1cccc(-c2nc(SC(C(C)=O)C(=O)N(C)C)c3c(=O)n(C)c(=O)n(C)c3n2)c1 (stereo unspecified) -6.15%, CCOC(=O)C1=C(CNCc2ccccc2)NC(=O)NC1c1ccc(C)cc1 (stereo unspecified) -21.2%, Cc1ccc(N2C(=O)[C@@H]3CSC(c4ccc(C(F)(F)F)cc4)N3C2=O)cc1 (stereo partly specified) -9.63%, COc1ccc(-n2c(=O)c3c(C)c(C)sc3n(Cc3ccc(F)cc3)c2=O)c(OC)c1 -27.5%, Cc1ccc(S(=O)(=O)N2CCCc3cc(NC(=O)c4ccc(C(F)(F)F)cc4)ccc32)cc1 -0.942%, COc1ccc(-c2noc(CSc3nnc(-c4ccncc4)n3-c3cccc(C)c3)n2)cc1OC -28.7%, Cc1ccc(-c2cc(-c3coc4ccccc4c3=O)c3c(n2)-c2cc(Cl)ccc2OC3)cc1 -6.66%, COc1ccccc1NC(=O)Cn1c(SCC(=O)NCc2ccccc2)nc2ccccc21 -28.3%, CC(=O)Nc1ccc(-c2nnc3n(CC(C)C)c(=O)c4ccccc4n23)cc1 19.2%, Cc1cc(C)cc(NC(=O)NCC2CCN(Cc3cc(C)ccc3C)CC2)c1 1.46%, COc1ccc(CCC(=O)NCCc2csc(-c3cccc(F)c3)n2)cc1 -10.4%, COc1cc2c(cc1NC(=O)C(C)Oc1ccc(Cl)cc1Cl)oc1ccccc12 (stereo unspecified) 19.2%, CCNC(=O)Nc1ccc2ncc(Nc3ccc(C)cc3)nc2n1 -1.47%, CCc1ccc(OCC2c3cc(OC)c(OC)cc3CCN2C(=O)Cc2ccc(OC)c(OC)c2)cc1 (stereo unspecified) -24.4%, COc1cc(-c2nnc(SCC(=O)N(C)C3CCCCC3)o2)cc(OC)c1OC -21.7%, COc1ccc(NC(=O)CCCN2C(=O)C(c3ccccc3)Oc3cccnc32)cc1OC (stereo unspecified) -35.7%, Cc1ccc(CCNC(=O)CCCn2nc(C)c3c(C)n(-c4ccc(C)cc4)nc3c2=O)cc1 -8.26%, CC(NC(=O)c1ccc(N2Cc3ccccc3Oc3ncccc32)s1)c1ccccc1 (stereo unspecified) -14.4%, Cc1ccc(/C=C/c2onc(C)c2S(=O)(=O)N2CCC(C(=O)NCc3ccc(Cl)cc3)CC2)cc1 -11.5%, CC(C)CCCC(C)N (stereo unspecified) -4.5%, O=C(NCCc1ccc(Cl)cc1)c1ccc2c(c1)N(Cc1ccc(F)cc1Cl)C(=O)CS2 -34.5%, CCOC(=O)C(C)NC(=O)c1cc2c(=O)[nH]c3ccc(C)cc3c2s1 (stereo unspecified) -3.88%, Cc1c(Cl)cccc1NC(=O)C(=O)NCCc1csc(-c2cccc(F)c2)n1 -8.76%, COc1ccc(NC(=O)c2ccc(-c3cccc(Cl)c3C)o2)cc1 -5.35%, COc1ccc(-c2[nH]c(-c3ccccc3)nc2SCC(=O)Nc2ccc3c(c2)OCO3)cc1 -24.5%, CCn1c(CN2CCCCC2)nc2cc(NC(=O)COc3ccc([N+](=O)[O-])cc3)ccc21 -34.6%, COc1ccc(-c2nc(CSc3nc4ncccc4[nH]3)c(C)o2)cc1OC -27.5%, CC(NC(=O)Cc1ccc(NC(=O)N2CCCCc3ccccc32)cc1)c1ccccc1 (stereo unspecified) -13.9%, O=C(Nc1ccc(F)cc1)c1cccc(N2CCCS2(=O)=O)c1 21.3%, CN(C)CCn1nnnc1SCC1=C(C(=O)O)N2C(=O)[C@@H](NC(=O)Cc3csc(N)n3)[C@H]2SC1 1.68%, Cc1cc(=O)n(C(C)C(=O)NCc2ccccc2Cl)c2c1c(C)nn2-c1ccccc1 (stereo unspecified) -14.4%, COc1cc(OC)c(C2C=C(c3ccc(C)cc3)Nc3c(C(=O)Nc4ccccc4)cnn32)cc1OC (stereo unspecified) -38.5%, Cc1ccc(C(C)C)c(OCC(=O)Nc2c(C(=O)c3ccc(F)cc3)oc3ccccc23)c1 -5.74%, Cc1cc(O)c(C(c2ccccc2Cl)N2CCCCC2)c(=O)n1Cc1ccco1 (stereo unspecified) 6.36%
